# Laboratory results reported in PubChem BioAssay AID1454 (National Center for Advancing Translational Sciences (NCATS), 2008).
# About 550 (0.42%) of roughly 130,000 compounds were called active. The shares of active, inactive and inconclusive entries below differ from those in the screen. Calls come from the whole dose curve; as a rule, active = well fitted inhibition curve with a large enough effect; inconclusive = small, poorly fitted or top-dose-only effect, or effect the other way; inactive = flat fitted curve, though single readings scatter. No potency is given beside an inconclusive call; the fits are too rough.
# Test: qHTS Assay for Inhibitors of the ERK Signaling Pathway using a Homogeneous Screening Assay; Stimulation with EGF; note: nearly all actives have a fitted effect of over 55% in size;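 for activity change, negative = inhibition: plate controls were stimulated vehicle wells for no effect and unstimulated vehicle basal for full effect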
# Details: HEK293-V1b, EGF-stimulated phospho-ERK AlphaScreen; activity change, negative = inhibition: at the top concentration
# Excerpt: NIH Chemical Genomics Center [NCGC]
# NIH Molecular Libraries Screening Centers Network [MLSCN]
# Assay Submitter (PI): Dr. Wei Zheng, NCGC/NIH
# The Ras/extracellular-signal-regulated kinase (ERK) mitogen activated protein (MAP) kinase signaling pathway (ERK1/2 cascade) plays a key role in transmitting signals from the cell surface to the nucleus (Nishida and Gotoh 1993; Chang and Karin, 2001). The cascade is initiated by the small G-protein Ras, which recruits Raf from the cytosol, where activation occurs. Alternatively, this pathway can be activated by elevating intracellular cAMP, or by activation of a receptor tyrosine kinase as epidermal growth factor receptor.
# Activation of the ERK pathway is essential in increased cell division and cell survival. Sustained and constitutive activation of the ERK pathway, however, has been linked to uncontrolled cell proliferation, increased cell survival, and tumor progression. Thus, the ERK has been as an attractive target for cancer chemotherapy in the past few years (Sebolt-Leopold and Herrera, 2004). Given its physiological and pathological importance, assessment of ERK phosphorylation has been broadly performed in both basic research and drug discovery. Most assays for the measurement of ERK phosphorylation use the antibody-based detection methods, such as western blot and ELISA. These assays require multiple reagent additions with cell wash steps and are not suitable for high throughout screening.
# The current cell-based ERK phosphorylation assay was performed using AlphaScreen platform. AlphaScreen is a two bead-based proximity-dependent chemical energy transfer luminescent assay platform. The assay reagents (ERK SureFire(TM) kit) were supplied from TGR BioSciences (Australia). In the presence of specific antibodies, phosphorylated ERK will bring "donor" and "acceptor" beads to a proximity range (<200 nm), and subsequently lead a chemical luminescent reaction upon exciting donor beads with 680 nm laser. To exclude the assay-related false positives, we used a biotinylated rabbit IgG to perform counter-screen. The biotinylated antibody mimics the phosphorylated ERK1/2 for bringing streptavidin coated beads and protein-A coated beads to a proximity range for the AlphaScreen detection.
# NCGC Assay Protocol Summary:
# HEK293 cells stably expressing type-1 vasopressin receptor (V1b) were maintained in DMEM medium (Invitrogen, Carlsbad, CA) at 37C under a humidified atmosphere containing 5% CO2 and 95% air. The medium contained 10% FBS, 2 mM L-glutamine, non-essential amino acid, pyruvate and 50 U/ml penicillin and 50 ug/ml streptomycin (Invitrogen). The aliquots of frozen cells were stored at -135C and used for the compound screening. All compounds were screened as titrations from 0.6 nM to 46 uM final concentration. Epidermal growth factor (EGF) was used to stimulate the ERK phosphorylation pathway. The ERK phosphorylation in cells was determined using an AlphaScreen assay kit provided by […]. Data were normalized to the controls for basal activity (DMSO only) and 100% activation (25 nM EGF). AC50 values were determined from concentration-response data modeled with the standard Hill equation.
# (1) Seed 4 ul/well of resuspended frozen HEK293 cells containing 2000 cells in white 1536-well plates for overnight with 1% FBS at 37C under a humidified atmosphere containing 5% CO2 and 95% air.
# (2) Add 23 nL compounds in DMSO solution. The final titration was 0.6 nM to 46 uM.
# (3) Incubate at 37C for 30 min.
# (4) Dispense 0.5uL EGF (25 nM in final)
# (5) Incubate at 37C for 5 min.
# (6) Dispense 0.5uL of 1:2 diluted 5x lysis buffer.
# (7) Incubate at 37C for 10 min.
# (8) Dispense 1.5uL of mixture of activation buffer and reaction buffer with AlphaScreen beads (streptavidin donor beads and protein-A acceptor beads, 10 ng/well for each).
# (9) Incubate at room temperature for 5 hr.
# (10) Detect the assay plate in an EnVision plate reader (PerkinElmer) using the AlphaScreen detection mode.
# […]
# Potency is the fitted concentration of half-maximal effect; tags give direction and shape of the fitted curve.
SMILES,Potency,"activity change, negative = inhibition"
COc1ccc(CCn2c(C)cc(C(=O)CSc3nnc(N)s3)c2C)cc1,"inconclusive [inhibitor, partial curve]",
NC(=O)c1sc2nc3c(c(-c4cccs4)c2c1N)CCCC3,,inactive: -5.67%
COC1=C/C(=C/c2c(O)c(C#N)c3ccccn23)C=CC1=O,"inconclusive [inhibitor, partial curve, poor fit]",
CC(CCc1ccc(O)cc1)NCCc1ccc(O)c(O)c1 (stereo unspecified),"inconclusive [inhibitor, single point]",
CC(C)S(=O)(=O)c1csc(NC(=O)Nc2cc(Cl)ccc2Cl)c1Cl,"inconclusive [inhibitor, single point]",
CCCCn1c(NCc2ccc(N(C)C)cc2)nc2ccccc21,"inconclusive [inhibitor, single point]",
O=c1c(-c2cccc(Cl)c2)nc2cncnc2n1Cc1ccccc1Cl,"inconclusive [inhibitor, partial curve]",
CCCCCCCCCCn1ccc(=N)cc1,"inconclusive [inhibitor, partial curve, poor fit]",
Cc1ccc(S(=O)(=O)NCC(=O)NC2CCCC2)cc1,"inconclusive [activator, single point]",
COc1ccc(C(=O)Nc2c(-c3cccs3)c(=O)c3ccccc3n2C)cc1,active: 5.62 µM,
CCN(CC)c1ccc(/C=C(/C#N)C(=O)NC(C)C)o1,,inactive: -6.81%
N#Cc1c(-c2ccccc2)cc(-c2ccccc2)nc1Br,"inconclusive [activator, single point]",
CCN1CCCc2cc(CN(CCN3CCOCC3)C(=S)Nc3cccc(Cl)c3)ccc21,"inconclusive [inhibitor, single point]",
COc1ccc(C2CC(c3ccccc3)=NN2c2ccc(S(N)(=O)=O)cc2)cc1OC (stereo unspecified),,inactive: -8.88%
O=C(c1ccccc1)c1ccc2nc(-c3ccc(NC(=O)c4ccccc4Br)cc3)[nH]c2c1,"inconclusive [inhibitor, partial curve]",
CCOC(=O)C1(CCc2ccccc2)CCN(C(=O)CN2CCOC2=O)CC1,"inconclusive [activator, partial curve, poor fit]",
C[C@@H](O)CCC[C@H](O)/C=C/[C@H]1[C@H](O)CC(=O)[C@@H]1C/C=C\CCCC(=O)O,,inactive: -10.2%
O=[N+]([O-])c1ccccc1-c1ccc(C(=S)N2CCN(c3ccccc3)CC2)o1,"inconclusive [inhibitor, partial curve, poor fit]",
COc1ccc(CCNC2=C(Cl)C(=O)N(Cc3ccccc3)C2=O)cc1OC,"inconclusive [activator, full curve]",
Cc1ccc(C(O)(C(=O)NN(C(=O)c2ccccc2)c2ccccc2)c2ccc(C)cc2)cc1,,inactive: -6.1%
CC(C)N(CCC(=O)c1ccc2ccccc2c1)Cc1ccccc1,"inconclusive [inhibitor, single point]",
COc1cccc(OCC(O)CN2CCN(c3ccc(Cl)cc3)CC2)c1 (stereo unspecified),"inconclusive [inhibitor, partial curve, poor fit]",
COc1ccc(C(=O)N2CCC3(CCCN(c4cccc(-c5ccccc5)c4)C3)CC2)cc1,,inactive: 2.63%
CCOC(=O)c1cc(-c2ccccc2)nc2ccc(C)cc12,"inconclusive [activator, single point]",

SMILES,Potency,"activity change, negative = inhibition"
C/C(=N\N(c1ccccc1)c1ccccc1)c1ccco1,"inconclusive [inhibitor, single point]",
CC1CCN(CC(=O)Nc2ccc(N3CCCCCC3)cc2)CC1,"inconclusive [inhibitor, single point]",
CCCCCCCCCCCCCCCC(=O)NCCCC(=O)O,,inactive: -5.1%
CC(C)C(=O)Nc1nnc(SCC(=O)Nc2ccc3c(c2)OCCO3)s1,"inconclusive [inhibitor, single point]",
Cc1cccc(N2CCN(Cc3nc(-c4ccccc4Cl)oc3C)CC2)n1,"inconclusive [inhibitor, partial curve, poor fit]",
Oc1ccc(Cl)cc1/C=C/c1ccc2cccc(O)c2n1,"inconclusive [inhibitor, single point]",
Cc1ccc(Cl)cc1NC(=S)N(Cc1ccccc1)Cc1cccnc1,"inconclusive [inhibitor, single point]",
O=C(O)c1cc(N/N=C/C=C/c2ccccc2[N+](=O)[O-])ccc1Cl,"inconclusive [inhibitor, single point]",
O=C(COC(=O)c1cncc(Br)c1)NC1CCCCC1,,inactive: 5.71%
COc1cccc(OC)c1OCCCOc1ccc(C)cc1Br,"inconclusive [activator, single point]",
COc1ccc(N2CCC(CNC(=S)Nc3ccc(C)cc3C)C2)cc1 (stereo unspecified),active: 14.1 µM,
CN(C)/N=C/c1ccc([N+](=O)[O-])cc1[N+](=O)[O-],"inconclusive [inhibitor, partial curve]",
COc1ccccc1CNC(=O)c1csc2c1CCCC2,"inconclusive [inhibitor, single point]",
Nc1cc(S(=O)(=O)N2CCOCC2)ccc1Oc1ccc(F)cc1,"inconclusive [inhibitor, partial curve, poor fit]",
N#CC1(c2ccccc2)CCC(=O)N1Cc1ccccc1 (stereo unspecified),,inactive: 0.375% [at 57.5 µM]
Cc1ccc(C)c(NC(=O)COC(=O)CCc2ccc(S(=O)(=O)N3CCOCC3)cc2)c1,"inconclusive [inhibitor, single point]",
N#Cc1c(N(CCO)CCO)nc(N)c2c(N)nc3c(c12)CC(=O)N3CC1CCCO1 (stereo unspecified),,inactive: -8.03% [at 57.5 µM]
O=C(Nc1ccc(Cl)c([N+](=O)[O-])c1)c1ccc2c(c1)OCCO2,"inconclusive [inhibitor, single point]",
Cc1cccc2cc(CNC3CCCC3)c(Cl)nc12,,inactive: 9.71%
COC(CNC(=O)c1ccc(N2CCc3ccccc32)c([N+](=O)[O-])c1)OC,"inconclusive [inhibitor, single point]",
O=C(O)c1cc([N+](=O)[O-])cc2c1nnn2O,"inconclusive [inhibitor, single point]",
COc1ccc(C(=O)N2CCC3(CC2)CCN(c2cccc(-c4ccccc4)c2)CC3)cc1,,inactive: -4.58%
CC12CCCCN1CCCc1c2[nH]c2ccccc12 (stereo unspecified),"inconclusive [inhibitor, full curve, poor fit]",
N#Cc1c(NC(=O)c2ccccc2)sc2c1CCCCC2,,inactive: 3.39%

SMILES,Potency,"activity change, negative = inhibition"
Cc1nn(-c2ccccc2)c(Cl)c1/C=C(\C#N)C(=O)NC(C)C,"inconclusive [inhibitor, partial curve]",
CC(NCc1ccc(OCc2ccc(Cl)cc2)cc1)C(O)c1ccccc1 (stereo unspecified),"inconclusive [inhibitor, single point]",
CCC(=O)NC(=S)Nc1ccccc1C(=O)NC1CCCCC1,,inactive: -0.327%
O=C1c2ccccc2C2=Nc3ccccc3SC(c3ccc(Cl)cc3)C12 (stereo unspecified),"inconclusive [inhibitor, partial curve]",
CS(=O)(=O)Nc1ccc(C2=NN(C(=O)c3ccco3)C(c3ccccc3F)C2)cc1 (stereo unspecified),,inactive: 33.5%
O=C1CC(SC(=Nc2ccccc2)Nc2ccccc2)C(=O)N1c1ccc(Cl)c(Cl)c1 (stereo unspecified),,inactive: 6.32%
C[n+]1ccc(/C=C/c2ccccc2O)c2ccccc21,"inconclusive [inhibitor, single point]",
COc1ccccc1N1CCN(C(c2ccc(N(C)C)cc2)c2nnnn2CCc2ccccc2)CC1 (stereo unspecified),"inconclusive [inhibitor, partial curve]",
Nc1ccccc1SC(C[N+](=O)[O-])c1ccccc1 (stereo unspecified),"inconclusive [inhibitor, single point]",
Cc1sc2ncnc(Nc3ccc(O)cc3)c2c1C,active: 28.2 µM,
O=C(NCCCN1CCN(c2ccc(F)cc2)CC1)Nc1ccc([N+](=O)[O-])cc1,"inconclusive [inhibitor, single point]",
CCCC(C)C(=O)NCc1ccncc1 (stereo unspecified),"inconclusive [inhibitor, single point]",
Cc1cc(C)c2sc(NNC(=O)c3ccc(S(=O)(=O)N4CCc5ccccc5C4)cc3)nc2c1,"inconclusive [inhibitor, single point]",
CC(=O)Nc1c(N)c2ccccc2oc1=O,,inactive: 3.53%
Cc1[nH]nc(Nc2ccc(C(C)C)cc2)c1[N+](=O)[O-],"inconclusive [inhibitor, single point]",
O=c1[nH]c2ccccc2[n+]([O-])c1-c1ccccc1,,inactive: 5.74%
Cc1ccc(-c2ccc(/C=N/O)o2)cc1[N+](=O)[O-],,inactive: 10.6%
Cn1c(=O)c2c(ncn2CC(=O)OCC(=O)NCc2ccc(Cl)cc2)n(C)c1=O,"inconclusive [activator, full curve, poor fit]",
CCCC(=O)N(c1ccc(C(=O)O)cc1)c1nc(-c2ccccc2)c(C)s1,"inconclusive [inhibitor, single point]",
COc1ccc(C(=O)/C(=C/O)N=Nc2ccc(F)cc2)cc1,,inactive: 5.35%
CCNc1nc(NCC)nc(SCC(C)=O)n1,,inactive: -4.96%
CC(=O)Nc1cccc(NC(=O)c2cc(-c3cccnc3)nc3ccc(Cl)cc23)c1,"inconclusive [inhibitor, partial curve, poor fit]",
CN(C)C(=O)c1ccc(-c2nc(N(C)C)c3ccccc3n2)cc1,,inactive: -56.8%
